Some of the results follow.
target: T1, MBP-FoxP1dN (Mus musculus, UniProt P58462 326-579); assay: PD-seq (MBP pull-down with sequencing); 20 mM Tris-HCl pH 7.5, 100 mM NaCl, 1.5 mM MgCl2, 0.4 uM protein, 0.1 uM dsDNA library, 30 min, room temperature, amylose pull-down; high values mean tight binding; details: protein: recombinant; tags: His6-MBP; chain copies: 2; dsDNA, one strand shown
T1 sequence: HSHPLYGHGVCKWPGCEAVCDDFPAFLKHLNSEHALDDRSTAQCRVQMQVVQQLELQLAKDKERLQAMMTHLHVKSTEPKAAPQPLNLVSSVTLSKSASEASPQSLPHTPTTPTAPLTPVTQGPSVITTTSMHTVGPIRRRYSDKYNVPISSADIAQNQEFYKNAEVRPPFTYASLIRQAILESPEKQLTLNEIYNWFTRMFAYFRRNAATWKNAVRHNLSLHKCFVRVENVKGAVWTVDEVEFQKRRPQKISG
Procedure, shortened: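 E. coli-expressed mouse FoxP3 or FoxP1 fragment, N-terminus removed and tagged with His6-MBP, was used at 0.4 µM against 0.1 µM of a Klenow-filled degenerate double-stranded DNA library. After 30 min at room temperature in Tris pH 7.5 buffer with NaCl and MgCl2, complexes were pulled down on amylose resin and washed three times. Binding is pull-down over input reads-per-million enrichment from pooled replicates of the proteinase K-released, PCR-barcoded, Illumina-sequenced DNA.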

Sequence	binding signal
GATGATTGTTCTCCCAGCTGATGAATTGTGAGGTTCGAGTAAACAAATTTTCCTAATCTTTCTGTTCAAGCGCCATCTAC	0.924 RPM ratio (pull-down/input)
GATGATTGTTCTCCCAGCTGATGAATTAAATGGGTCGAGTAAACAAATTTTCCTAATCTTTCTGTTCAAGCGCCATCTAC	0.879 RPM ratio (pull-down/input)
GATGATTGTTCTCCCAGCTGATGAATTTTTAACATCGAGTAAACAAATTTTCCTAATCTTTCTGTTCAAGCGCCATCTAC	1.19 RPM ratio (pull-down/input)
GATGATTGTTCTCCCAGCTGATGAATTAGATCAGTCGAGTAAACAAATTTTCCTAATCTTTCTGTTCAAGCGCCATCTAC	0.933 RPM ratio (pull-down/input)
GATGATTGTTCTCCCAGCTGATGAATTCCTCTTCTCGAGTAAACAAATTTTCCTAATCTTTCTGTTCAAGCGCCATCTAC	0.796 RPM ratio (pull-down/input)
GATGATTGTTCTCCCAGCTGATGAATTCTGGTGGTCGAGTAAACAAATTTTCCTAATCTTTCTGTTCAAGCGCCATCTAC	0.809 RPM ratio (pull-down/input)
GATGATTGTTCTCCCAGCTGATGAATTACACAAGTCGAGTAAACAAATTTTCCTAATCTTTCTGTTCAAGCGCCATCTAC	1.37 RPM ratio (pull-down/input)
GATGATTGTTCTCCCAGCTGATGAATTCATAGTATCGAGTAAACAAATTTTCCTAATCTTTCTGTTCAAGCGCCATCTAC	1.14 RPM ratio (pull-down/input)
GATGATTGTTCTCCCAGCTGATGAATTGGAACGTTCGAGTAAACAAATTTTCCTAATCTTTCTGTTCAAGCGCCATCTAC	0.904 RPM ratio (pull-down/input)
GATGATTGTTCTCCCAGCTGATGAATTGAACTACTCGAGTAAACAAATTTTCCTAATCTTTCTGTTCAAGCGCCATCTAC	0.87 RPM ratio (pull-down/input)
GATGATTGTTCTCCCAGCTGATGAATTGGTCATTTCGAGTAAACAAATTTTCCTAATCTTTCTGTTCAAGCGCCATCTAC	0.96 RPM ratio (pull-down/input)
GATGATTGTTCTCCCAGCTGATGAATTGATTGTTTCGAGTAAACAAATTTTCCTAATCTTTCTGTTCAAGCGCCATCTAC	1.61 RPM ratio (pull-down/input)
GATGATTGTTCTCCCAGCTGATGAATTGCGTACATCGAGTAAACAAATTTTCCTAATCTTTCTGTTCAAGCGCCATCTAC	1.24 RPM ratio (pull-down/input)
GATGATTGTTCTCCCAGCTGATGAATTATTAACTTCGAGTAAACAAATTTTCCTAATCTTTCTGTTCAAGCGCCATCTAC	1.17 RPM ratio (pull-down/input)
GATGATTGTTCTCCCAGCTGATGAATTACGTGATTCGAGTAAACAAATTTTCCTAATCTTTCTGTTCAAGCGCCATCTAC	1.02 RPM ratio (pull-down/input)
GATGATTGTTCTCCCAGCTGATGAATTGATAAGCTCGAGTAAACAAATTTTCCTAATCTTTCTGTTCAAGCGCCATCTAC	1.03 RPM ratio (pull-down/input)
GATGATTGTTCTCCCAGCTGATGAATTTGCCTCGTCGAGTAAACAAATTTTCCTAATCTTTCTGTTCAAGCGCCATCTAC	0.927 RPM ratio (pull-down/input)
GATGATTGTTCTCCCAGCTGATGAATTCGCGGGTTCGAGTAAACAAATTTTCCTAATCTTTCTGTTCAAGCGCCATCTAC	0.811 RPM ratio (pull-down/input)
GATGATTGTTCTCCCAGCTGATGAATTAGCAGCATCGAGTAAACAAATTTTCCTAATCTTTCTGTTCAAGCGCCATCTAC	1.01 RPM ratio (pull-down/input)
GATGATTGTTCTCCCAGCTGATGAATTAACCTGGTCGAGTAAACAAATTTTCCTAATCTTTCTGTTCAAGCGCCATCTAC	0.767 RPM ratio (pull-down/input)
GATGATTGTTCTCCCAGCTGATGAATTAGCCCACTCGAGTAAACAAATTTTCCTAATCTTTCTGTTCAAGCGCCATCTAC	0.892 RPM ratio (pull-down/input)

Sequence	binding signal
GATGATTGTTCTCCCAGCTGATGAATTCTATCTCTCGAGTAAACAAATTTTCCTAATCTTTCTGTTCAAGCGCCATCTAC	0.868 RPM ratio (pull-down/input)
GATGATTGTTCTCCCAGCTGATGAATTTCCGGTATCGAGTAAACAAATTTTCCTAATCTTTCTGTTCAAGCGCCATCTAC	0.895 RPM ratio (pull-down/input)
GATGATTGTTCTCCCAGCTGATGAATTGCCGGGTTCGAGTAAACAAATTTTCCTAATCTTTCTGTTCAAGCGCCATCTAC	0.896 RPM ratio (pull-down/input)
GATGATTGTTCTCCCAGCTGATGAATTTGTGCAGTCGAGTAAACAAATTTTCCTAATCTTTCTGTTCAAGCGCCATCTAC	1.1 RPM ratio (pull-down/input)
GATGATTGTTCTCCCAGCTGATGAATTTTTAGACTCGAGTAAACAAATTTTCCTAATCTTTCTGTTCAAGCGCCATCTAC	0.939 RPM ratio (pull-down/input)
GATGATTGTTCTCCCAGCTGATGAATTGCTTTGGTCGAGTAAACAAATTTTCCTAATCTTTCTGTTCAAGCGCCATCTAC	1.07 RPM ratio (pull-down/input)
GATGATTGTTCTCCCAGCTGATGAATTCATTGCGTCGAGTAAACAAATTTTCCTAATCTTTCTGTTCAAGCGCCATCTAC	1 RPM ratio (pull-down/input)
GATGATTGTTCTCCCAGCTGATGAATTTGGAGATTCGAGTAAACAAATTTTCCTAATCTTTCTGTTCAAGCGCCATCTAC	0.847 RPM ratio (pull-down/input)
GATGATTGTTCTCCCAGCTGATGAATTCTGTAGCTCGAGTAAACAAATTTTCCTAATCTTTCTGTTCAAGCGCCATCTAC	0.924 RPM ratio (pull-down/input)
GATGATTGTTCTCCCAGCTGATGAATTGGCCCAGTCGAGTAAACAAATTTTCCTAATCTTTCTGTTCAAGCGCCATCTAC	0.821 RPM ratio (pull-down/input)
GATGATTGTTCTCCCAGCTGATGAATTCTGAAGATCGAGTAAACAAATTTTCCTAATCTTTCTGTTCAAGCGCCATCTAC	0.82 RPM ratio (pull-down/input)
GATGATTGTTCTCCCAGCTGATGAATTCGGCTGATCGAGTAAACAAATTTTCCTAATCTTTCTGTTCAAGCGCCATCTAC	0.839 RPM ratio (pull-down/input)
GATGATTGTTCTCCCAGCTGATGAATTCATGTGATCGAGTAAACAAATTTTCCTAATCTTTCTGTTCAAGCGCCATCTAC	0.922 RPM ratio (pull-down/input)
GATGATTGTTCTCCCAGCTGATGAATTGTTGACCTCGAGTAAACAAATTTTCCTAATCTTTCTGTTCAAGCGCCATCTAC	1.88 RPM ratio (pull-down/input)
GATGATTGTTCTCCCAGCTGATGAATTTCTTCGCTCGAGTAAACAAATTTTCCTAATCTTTCTGTTCAAGCGCCATCTAC	0.783 RPM ratio (pull-down/input)
GATGATTGTTCTCCCAGCTGATGAATTCGACAATTCGAGTAAACAAATTTTCCTAATCTTTCTGTTCAAGCGCCATCTAC	1.02 RPM ratio (pull-down/input)
GATGATTGTTCTCCCAGCTGATGAATTTAAGCTTTCGAGTAAACAAATTTTCCTAATCTTTCTGTTCAAGCGCCATCTAC	0.923 RPM ratio (pull-down/input)
GATGATTGTTCTCCCAGCTGATGAATTCGGTCATTCGAGTAAACAAATTTTCCTAATCTTTCTGTTCAAGCGCCATCTAC	0.813 RPM ratio (pull-down/input)
GATGATTGTTCTCCCAGCTGATGAATTTCTATAGTCGAGTAAACAAATTTTCCTAATCTTTCTGTTCAAGCGCCATCTAC	0.931 RPM ratio (pull-down/input)
GATGATTGTTCTCCCAGCTGATGAATTGAGGTCGTCGAGTAAACAAATTTTCCTAATCTTTCTGTTCAAGCGCCATCTAC	0.833 RPM ratio (pull-down/input)
GATGATTGTTCTCCCAGCTGATGAATTTGTCGTCTCGAGTAAACAAATTTTCCTAATCTTTCTGTTCAAGCGCCATCTAC	1.07 RPM ratio (pull-down/input)

Sequence	binding signal
GATGATTGTTCTCCCAGCTGATGAATTGAGCGCATCGAGTAAACAAATTTTCCTAATCTTTCTGTTCAAGCGCCATCTAC	1.19 RPM ratio (pull-down/input)
GATGATTGTTCTCCCAGCTGATGAATTTTATGCTTCGAGTAAACAAATTTTCCTAATCTTTCTGTTCAAGCGCCATCTAC	1.02 RPM ratio (pull-down/input)
GATGATTGTTCTCCCAGCTGATGAATTCCCCGTGTCGAGTAAACAAATTTTCCTAATCTTTCTGTTCAAGCGCCATCTAC	0.769 RPM ratio (pull-down/input)
GATGATTGTTCTCCCAGCTGATGAATTGAGATACTCGAGTAAACAAATTTTCCTAATCTTTCTGTTCAAGCGCCATCTAC	0.953 RPM ratio (pull-down/input)
GATGATTGTTCTCCCAGCTGATGAATTACTACCCTCGAGTAAACAAATTTTCCTAATCTTTCTGTTCAAGCGCCATCTAC	1.01 RPM ratio (pull-down/input)
GATGATTGTTCTCCCAGCTGATGAATTCTAAAGTTCGAGTAAACAAATTTTCCTAATCTTTCTGTTCAAGCGCCATCTAC	0.849 RPM ratio (pull-down/input)
GATGATTGTTCTCCCAGCTGATGAATTCGTTATGTCGAGTAAACAAATTTTCCTAATCTTTCTGTTCAAGCGCCATCTAC	1.04 RPM ratio (pull-down/input)
GATGATTGTTCTCCCAGCTGATGAATTTAGCGAATCGAGTAAACAAATTTTCCTAATCTTTCTGTTCAAGCGCCATCTAC	0.991 RPM ratio (pull-down/input)
GATGATTGTTCTCCCAGCTGATGAATTTGAATATTCGAGTAAACAAATTTTCCTAATCTTTCTGTTCAAGCGCCATCTAC	0.953 RPM ratio (pull-down/input)
GATGATTGTTCTCCCAGCTGATGAATTAGCAAATTCGAGTAAACAAATTTTCCTAATCTTTCTGTTCAAGCGCCATCTAC	0.949 RPM ratio (pull-down/input)
GATGATTGTTCTCCCAGCTGATGAATTGCGTTAATCGAGTAAACAAATTTTCCTAATCTTTCTGTTCAAGCGCCATCTAC	1.22 RPM ratio (pull-down/input)
GATGATTGTTCTCCCAGCTGATGAATTTAGCGTTTCGAGTAAACAAATTTTCCTAATCTTTCTGTTCAAGCGCCATCTAC	0.93 RPM ratio (pull-down/input)
GATGATTGTTCTCCCAGCTGATGAATTGTCGTATTCGAGTAAACAAATTTTCCTAATCTTTCTGTTCAAGCGCCATCTAC	1.14 RPM ratio (pull-down/input)
GATGATTGTTCTCCCAGCTGATGAATTATCATGTTCGAGTAAACAAATTTTCCTAATCTTTCTGTTCAAGCGCCATCTAC	1.07 RPM ratio (pull-down/input)
GATGATTGTTCTCCCAGCTGATGAATTGCCGATATCGAGTAAACAAATTTTCCTAATCTTTCTGTTCAAGCGCCATCTAC	1.06 RPM ratio (pull-down/input)
GATGATTGTTCTCCCAGCTGATGAATTGCGACTCTCGAGTAAACAAATTTTCCTAATCTTTCTGTTCAAGCGCCATCTAC	0.997 RPM ratio (pull-down/input)
GATGATTGTTCTCCCAGCTGATGAATTTAATAGGTCGAGTAAACAAATTTTCCTAATCTTTCTGTTCAAGCGCCATCTAC	0.825 RPM ratio (pull-down/input)
GATGATTGTTCTCCCAGCTGATGAATTTAGCATCTCGAGTAAACAAATTTTCCTAATCTTTCTGTTCAAGCGCCATCTAC	1.26 RPM ratio (pull-down/input)
GATGATTGTTCTCCCAGCTGATGAATTACATCGCTCGAGTAAACAAATTTTCCTAATCTTTCTGTTCAAGCGCCATCTAC	1.07 RPM ratio (pull-down/input)
GATGATTGTTCTCCCAGCTGATGAATTGCATGCGTCGAGTAAACAAATTTTCCTAATCTTTCTGTTCAAGCGCCATCTAC	1.24 RPM ratio (pull-down/input)
GATGATTGTTCTCCCAGCTGATGAATTCACGATTTCGAGTAAACAAATTTTCCTAATCTTTCTGTTCAAGCGCCATCTAC	0.89 RPM ratio (pull-down/input)
